The text below walks through data of US6344564B1, “Fungicidal 2-imidazolin-5-ones and 2-imidazoline-5-thiones” (priority 1992, dated 2002).

Bounds are passed on as bounds.

In the test the test system is Plasmopara viticola. Description: In vivo test on Plasmopara viticola (grape downy mildew). To be noted: in Vitis vinifera, 168 h, dose of 1 g/l, vine cuttings (Vitis vinifera, Chardonnay) sprayed 24 hours before infecting, reading 7 days after infecting, read-out: protection. As to the method: An aqueous suspension of the active material to be rested is prepared, by fine milling, having the following composition:
Tween 80 surface-active agent (oleate of polyoxyethylenated derivative of sorbitan) diluted to 10% in water. 0.3 ml
volume made up to 60 ml with water.
This aqueous suspension is then diluted with water to produce the desired concentration of active material.
Vine cuttings (Vitis vinifera), Chardonnay variety, are grown in pots. When these plants are 2 moths old (8-10-leaf stage, height of 10 to 15 cm), they are treated by spraying with the above aqueous suspension.
After drying for 24 hours, each plant is infected, by spraying, with an aqueous suspension of spores of Plasmopara viticola obtained from a 4-5 day culture, and then suspended at a concentration of 100,000 units per cm^3.
The infected plants are then incubated for two days at approximately 18° C. in an atmosphere saturated with moisture and then for 5 days at approximately 20-22° C. under 90-100% relative humidity.
Reading is carried out 7 days after infecting, by comparison with the control plants.
`CSC1=NC(C)(c2ccccc2)C(=O)N1Nc1ccccc1` (centres unmarked) [Compound 9, 4-methyl-2-methylthio-4-phenyl-1-phenylamino-2-imidazolin-5-one]: the pest or weed control at 1000 µg/mL was not below 75%.

Regarding `CSC1=NC(C)(c2ccccc2)C(=O)N1Cc1ccccc1` (centres unmarked) [Compound 34, 1-benzyl-4-methyl-2-methylthio-4-phenyl-2-imidazolin-5-one], the pest or weed control at 1000 µg/mL is not below 75%. Next, `CCC1(c2ccccc2)N=C(SC)N(Nc2ccccc2)C1=O` (centres unmarked) [Compound 48, 4-ethyl-2-methylthio-4-phenyl-1-phenylamino-2-imidazolin-5-one]: not below 75%; `CSC1=NC(C)(c2ccc(F)cc2)C(=O)N1Nc1ccccc1` (centres unmarked) [Compound 68, 4-Methyl-2-methylthio-4-(4-fluorophenyl)-1-phenylamino-2-imidazolin-5-one]: not below 75%. To `CC1=NC(C)(c2ccccc2)C(=O)N1Nc1ccccc1` (centres unmarked) [Compound 201, 2,4-dimethyl-4-phenyl-1-phenylamino-2-imidazolin-5-one] belongs not below 75%; to `CSC1=NC(C)(c2ccccc2)C(=S)N1Nc1ccccc1` (centres unmarked) [Compound 1, 4-methyl-2-methylthio-4-phenyl-1-phenylamino-2-imidazoline-5-thione], not below 75%; to `CSC1=NC(C)(c2ccccc2)C(=O)N1N(C)c1ccccc1` (centres unmarked) [Compound 22, 4-methyl-1-(N-methyl-N-phenylamino)-2-methylthio-4-phenyl-2-imidazolin-5-one], not below 75%. To `CSC1=NC(C)(c2ccccc2)C(=O)N1N(C(C)=O)c1ccccc1` (centres unmarked) [Compound 23, 4-methyl-1-(N-acetyl-N-phenylamino)-2-methylthio-4-phenyl-2-imidazolin-5-one] belongs not below 75%.
